Measurements reported in publication PMC4336329 (PLoS ONE, 2015).
Out of some 310,000 compounds screened, about 14,000 (4.5%) showed an effect of 50% or more. The effect is printed as a negative number. Some of the results follow. Where a SMILES comes first, the peptide text is derived from it. [ ]: non-standard residue; d: D form. The star is where a group is joined. ξ: configuration not given here. Cbz = O=C(OCc1ccccc1)*; ξV = CC(C)C(N)C(=O)O; OtBu = CC(C)(C)O*

Biological target: human ether-à-go-go-related gene (hERG) potassium channel (human, UniProt Q12809)
Sequence (Q12809 whole entry, looked up): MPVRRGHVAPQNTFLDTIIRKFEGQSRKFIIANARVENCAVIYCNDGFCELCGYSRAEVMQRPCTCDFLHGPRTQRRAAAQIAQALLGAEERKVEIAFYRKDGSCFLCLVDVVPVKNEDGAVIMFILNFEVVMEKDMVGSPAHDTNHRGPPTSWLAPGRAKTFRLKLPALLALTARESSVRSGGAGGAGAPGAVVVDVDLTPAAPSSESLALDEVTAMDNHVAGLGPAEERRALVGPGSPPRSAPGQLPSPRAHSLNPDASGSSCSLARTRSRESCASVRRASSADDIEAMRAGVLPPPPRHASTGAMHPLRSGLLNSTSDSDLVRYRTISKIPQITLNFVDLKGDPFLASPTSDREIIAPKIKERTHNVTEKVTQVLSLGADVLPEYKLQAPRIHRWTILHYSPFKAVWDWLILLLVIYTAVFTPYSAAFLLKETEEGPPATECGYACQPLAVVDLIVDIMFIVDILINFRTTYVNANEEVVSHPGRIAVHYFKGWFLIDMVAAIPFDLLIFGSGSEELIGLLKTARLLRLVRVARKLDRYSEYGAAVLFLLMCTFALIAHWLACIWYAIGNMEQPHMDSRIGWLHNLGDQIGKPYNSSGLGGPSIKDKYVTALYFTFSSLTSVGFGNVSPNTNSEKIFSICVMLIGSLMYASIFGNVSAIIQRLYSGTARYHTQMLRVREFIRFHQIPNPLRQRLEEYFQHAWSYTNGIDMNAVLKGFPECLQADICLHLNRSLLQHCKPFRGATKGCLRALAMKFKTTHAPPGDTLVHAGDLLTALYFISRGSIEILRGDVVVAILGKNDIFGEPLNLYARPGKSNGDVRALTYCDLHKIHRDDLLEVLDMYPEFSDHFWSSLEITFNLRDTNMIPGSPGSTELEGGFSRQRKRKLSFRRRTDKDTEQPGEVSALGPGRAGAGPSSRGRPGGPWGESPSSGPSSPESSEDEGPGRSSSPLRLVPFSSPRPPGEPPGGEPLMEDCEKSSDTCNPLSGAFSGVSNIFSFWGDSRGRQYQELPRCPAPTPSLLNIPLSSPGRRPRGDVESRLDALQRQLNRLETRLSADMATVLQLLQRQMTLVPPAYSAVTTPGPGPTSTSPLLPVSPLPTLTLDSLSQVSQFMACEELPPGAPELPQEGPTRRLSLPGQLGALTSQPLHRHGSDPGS
Test: primary screen, population patch clamp on CHO cells stably expressing hERG
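Note: peak tail current of the secondary pulse compared with the same well before compound.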

Row | SMILES | hERG current change (%, negative = inhibition) at 10uM [%]
1 | COC(=O)c1ccc(O)c(Sc2cc(C(=O)OC)ccc2O)c1 | 5.37
2 | CCOC(=O)c1c(C)nc2ccccc2c1C.Cl | -4.65
3 | O=C(Nc1ccc(Cl)cn1)c1cc2c(s1)-c1ccccc1OC2 | 12.3
4 | Cc1ccc(C)c(NC(=O)/C(C#N)=C/c2ccc(Sc3nncn3C)c([N+](=O)[O-])c2)c1 | -2.24
5 | CN1CCN(c2ccc(S(=O)(=O)N3CCCCC3)cc2NC(=O)c2ccc(C#N)cc2)CC1 | -41.7
6 | NC(=O)CCCc1nc(-c2ccccc2Cl)no1 | 6.58
7 | CN(Cc1cccnc1)Cc1cn(C)nc1-c1ccc(Oc2ccccc2)cc1 | -27.9
8 | COc1ccc(C2C(C(=O)Nc3cc(C)on3)c3ccccc3C(=O)N2C)cc1OC (stereo not drawn) | -2.66
9 | COc1ccc(S(=O)(=O)CCc2nnc(NC(C)=O)s2)cc1 | 22.6
10 | C=CCN1C(=O)c2ccccc2Sc2ccc(C(=O)N3CCN(C)CC3)cc21 | -13
11 | Cc1ccc(S(=O)(=O)/N=C(/c2ccc(F)cc2)N2CCOCC2)cc1 | 1.28
12 | CC(=O)Nc1ccc(NC(=O)C2CCCN(C(=O)c3ccc(Cl)cc3)C2)cc1 (stereo not drawn) | 6.47
13 | COc1ccc([C@@H]2CC=C(C(=O)O)CN2S(=O)(=O)c2ccc(C)cc2)cc1OC | 26.9
14 | Cc1nn(-c2ccccc2)c(Cl)c1/C=C(\CC(=O)O)c1nc2ccccc2s1 | -5.54
15 | O=P(Oc1ccccc1)(Oc1ccccc1)N1CCN(c2ccc(F)cc2)CC1 | 7.23
16 | C/C(=N\NC(=S)NCc1ccccc1)c1ccccc1 | -0.412
17 | CC(=O)N1CCC2(CC1)CC(=O)c1cc(OCC(=O)NCc3ccc(C)cc3)ccc1O2 | -21.3
18 | COc1ccccc1N1CCN(C(=O)CCNC(=O)Cn2ccc3ccccc3c2=O)CC1 | 2.62
19 | Cc1cc(OCC(=O)Nc2ccncc2)ccc1Cl | 2.32
20 | Cc1nc(Nc2ccc(S(=O)(=O)N3CCCCC3C)cc2)c2nnn(Cc3ccccc3)c2n1 (stereo not drawn) | 12.8
21 | CC1CCCC(C)N1C(=O)CSc1nc2c(c(=O)n(C)c(=O)n2C)n1C (stereo not drawn) | 5.34
22 | CC(Cc1ccccc1)C(=O)N(C)Cc1ccccc1 (stereo not drawn) | -2.04
23 | O=C(Nc1ccc(S(=O)(=O)NCC2CCCO2)cc1)c1ccccc1 (stereo not drawn) | 2.19
24 | COc1ccccc1NC(=S)N(CCc1nc2cc(C)c(C)cc2[nH]1)Cc1cccnc1 | -40
25 | CCN(CC)Cc1c(C(=O)N/N=C/c2cccc3ccccc23)nnn1-c1nonc1N | -10.5
26 | CC1(C)Cc2c(sc(NC(=O)COc3ccc(Cl)cc3Cl)c2C(N)=O)C(C)(C)N1 | 12.1
27 | CCN(CC)S(=O)(=O)c1ccc(C)c(NC(=O)c2cc(C)oc2C)c1 | -41.7

Row | SMILES | hERG current change (%, negative = inhibition) at 10uM [%]
28 | Cl.N=c1c[n+](C2CCCCC2)[n-]o1 | 8.71
29 | O=C(CN1C(=O)NC2(CCCC2)C1=O)OCCOc1ccc(Cl)cc1Cl | -23.3
30 | CCOC(=O)C(C)c1ccc2cc(OC)ccc2c1 (stereo not drawn) | 4.01
31 | O=C(CNC(=O)c1sc2ccccc2c1Cl)NCc1cccc(C(F)(F)F)c1 | -11.9
32 | O=[N+]([O-])c1ccc(N/N=C/c2cccc(O)c2O)cc1 | 10.8
33 | CCOc1ccc(S(=O)(=O)N2CCN(c3ncccn3)CC2)cc1 | 9.1
34 | CC(C)=CC(=O)N1CCC(N2CCC(C(=O)NCC3CCCO3)CC2)CC1 (stereo not drawn) | 15.4
35 | COc1cc(/C=C/C(=O)O)ccc1OS(=O)(=O)c1c(C)cc(C)cc1C | -43.2
36 | CCN1CCN(c2ccc(NC(=O)Cc3ccccc3)cc2)CC1 | -23.5
37 | Cc1c(C(=O)NCCSc2ccc(Cl)cc2)cccc1[N+](=O)[O-] | -22.3
38 | COc1ccc(N2C(=O)C(CC(=O)Nc3ccccc3)N(CCc3ccc(OC)c(OC)c3)C2=O)cc1 (stereo not drawn) | 6.25
39 | CCCCn1c(N)c(N(CCOC)C(=O)CSCc2c(C)noc2C)c(=O)[nH]c1=O | 17.1
40 | Cc1cnc(C(=O)OCC(=O)Nc2ccc(Oc3ccccc3)cc2)cn1 | 1.75
41 | COc1ccc2c(c1)nc(SCC(=O)C(C)(C)C)n2C | -2.82
42 | O=C(O)c1cccc(-c2nnn(Cc3ccccc3Cl)n2)c1 | -2.59
43 | O=C(CCn1nnc2ccccc2c1=O)NCC1CCC(C(=O)O)CC1 (stereo not drawn) | 9.84
44 | C=CCNC(=S)N/N=C(\C)c1cccnc1 | 0.787
45 | O=C(Nc1ccc(S(=O)(=O)N2CCOCC2)cc1)C1CC(=O)N(c2ccc(F)cc2)C1 (stereo not drawn) | 13.7
46 | CC(C)CNC(=O)c1cccc(NC(=O)CCc2ccccc2)c1 | -9.16
47 | Cc1ccccc1OCc1nc(-c2cccnc2)no1 | -4.6
48 | O=[N+]([O-])c1cccc(P(=O)(O)c2cccc([N+](=O)[O-])c2)c1 | 1.49
49 | Cc1noc(C)c1CC(=O)N1CCCC(C(=O)c2ccc(C(C)(C)C)cc2)C1 (stereo not drawn) | -18.8
50 | Cc1ccc(OCC(=O)N2N=C(c3ccc(Cl)cc3)CC2c2ccco2)c([N+](=O)[O-])n1 (stereo not drawn) | -63.3
51 | CC(C)C(NC(=O)OCc1ccccc1)C(=O)NCC(=O)OC(C)(C)C (stereo not drawn) (Cbz-[ξV]-Gly-OtBu) | 7.88
52 | COc1ccc(Cl)cc1NS(=O)(=O)c1cc(Cl)ccc1OC | 3.37
53 | CC(C)C(NS(=O)(=O)c1cccs1)C(=O)N1CCC(C(N)=O)CC1 (stereo not drawn) | 12
54 | Cc1nc2cc(NC(=O)NCc3ccc4c(c3)OCO4)ccc2o1 | 4.7
